Positions count from the first letter of the chain named. No constants are given. Whether binding was seen depends on the method and setting. Binding seen in cells or lysates may run through a third protein. Some binding calls cover weakened binding; strength is not graded here. For some assays here: Sequences can lack the tags named with a protein. Values belong to the binder of their own block, whether it stands above or below them.
Tests used:
[1] = target: AKT1 (human (endogenous in A549)) (UniProt P31749); assay: co-IP; extracts of A549 cells transfected with plasmids of wild type RhebL1, RhebL1D60K or RhebL1Q64L; IP with AKT1 antibody, immunoblot with HA and AKT1 antibodies
[2] = target: AKT1 (human (endogenous in A549)) (UniProt P31749); assay: co-IP; extracts of A549 cells with or without 5 uM SPC for 1 h; IP with AKT1 antibody or RhebL1 antibody, protein A/G magnetic beads, immunoblot with AKT1 and RhebL1 antibodies

Sequences of proteins named here, by UniProt entry; tags and fusion partners are left off.
UniProt P31749: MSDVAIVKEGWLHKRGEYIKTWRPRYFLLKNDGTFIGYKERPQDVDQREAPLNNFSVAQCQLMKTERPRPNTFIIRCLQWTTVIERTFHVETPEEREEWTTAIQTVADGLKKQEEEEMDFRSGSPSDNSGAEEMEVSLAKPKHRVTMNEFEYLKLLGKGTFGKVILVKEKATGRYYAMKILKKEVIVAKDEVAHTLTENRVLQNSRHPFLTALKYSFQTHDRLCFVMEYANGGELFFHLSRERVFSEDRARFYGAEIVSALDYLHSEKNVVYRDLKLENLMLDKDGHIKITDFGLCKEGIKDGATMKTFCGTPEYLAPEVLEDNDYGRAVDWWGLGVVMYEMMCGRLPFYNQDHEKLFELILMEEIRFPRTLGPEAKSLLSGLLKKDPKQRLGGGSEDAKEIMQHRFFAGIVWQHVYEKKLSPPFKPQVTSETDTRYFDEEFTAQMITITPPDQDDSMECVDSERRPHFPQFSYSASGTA

binding [1]: binds | binding [2]: binds
B1: RhebL1 (protein, UniProt Q8TAI7 1-183)
chain: MPLVRYRKVVILGYRCVGKTSLAHQFVEGEFSEGYDPTVENTYSKIVTLGKDEFHLHLVDTAGQDEYSILPYSFIIGVHGYVLVYSVTSLHSFQVIESLYQKLHEGHGKTRVPVVLVGNKADLSPEREVQAVEGKKLAESWGATFMESSARENQLTQGIFTKVIQEIARVENSYGQERRCHLM

binding [1]: binds
B2: wild type RhebL1 (HA-tagged, from pcDNA3.1-HA) (protein, UniProt Q8TAI7 1-183)
chain: B1 chain

binding [1]: no binding
B3: RhebL1D60K (dominant negative, HA-tagged) (protein, UniProt Q8TAI7 1-183)
chain: B1 chain with D60K

binding [1]: binds
B4: RhebL1Q64L (constitutively active, HA-tagged) (protein, UniProt Q8TAI7 1-183)
chain: B1 chain with Q64L

From publication PMC5400551
